# From the supplement of paper PMC12217912
# This is one part of the list. The full chains were built here from the parent and the listed change. Values near 0.05 are background.
# B1: TEV protease; numbered along this chain (parent)
# chain: MGESLFKGPRDYNPISSSICHLTNESDGHTTSLYGIGFGPFIITNKHLFRRNNGTLVVQSLHGVFKVKDTTTLQQHLVDGRDMIIIRMPKDFPPFPQKLKFREPQREERICLVTTNFQTKSMSSMVSDTSCTFPSGDGIFWKHWIQTKDGQCGSPLVSTRDGFIVGIHSASNFTNTNNYFTSVPKNFMELLTNQEAQQWVSGWRLNADSVLWGGHKVFMVKPEEPFQPVKEATQL
# Variants of: B1
# Assay: raw area under fraction-flipped curve 0-4 h after induction (AUC4h, not background-subtracted), DNA-recorder readout of cleavage of the substrate (dimensionless); higher = more cleavage of the substrate by the protease variant
# Conditions: temperature: 34 °C; time window: 0-4 h after rhamnose induction
# Description: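 In vivo DNA recorder in E. coli TOP10(DE3) ΔrhaA at 34 °C. Each TEVp single-site mutant (parent TEVp 0) is paired with a single-site variant of the 7-mer TEVs (canonical ENLYFQ|S). The substrate sits between flexible linkers in a Bxb1-sfGFP-TEVs-SsrA fusion, so cleavage stabilises Bxb1 and speeds flipping of a recombination array, read by NGS. The value is the raw area under the fraction-flipped curve over 0-4 h after rhamnose induction (AUC4h), with ≥20 reads per time point. It is not background-subtracted; inactive controls average about 0.047.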
# 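Note: Bxb1 expression induced with 0.2% (w/v) L-rhamnose at OD600 near 0.5, cultures sampled hourly, flipped fraction per protease–substrate barcode pair counted by paired-end Illumina sequencing.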
Variant,area with substrate ENAYFQS,area with substrate ENCYFQS,area with substrate ENDYFQS,area with substrate ENFYFQS,area with substrate ENHYFQS,area with substrate ENKYFQS,area with substrate ENMYFQS,area with substrate ENNYFQS,area with substrate ENQYFQS,area with substrate ENSYFQS,area with substrate ENTYFQS,area with substrate ENVYFQS,area with substrate ENWYFQS,area with substrate ENEYFQS,area with substrate ENGYFQS,area with substrate ENIYFQS,area with substrate ENPYFQS,area with substrate ENRYFQS,area with substrate ENYYFQS
MGESLFKGPRDYNPISSSICHLTNESDGHTTSLYGIGFGPFIITNKHLFRRNNGTLVVQSLHGVFKVKDTTTLQQHLVDIRDMIIIRMPKDFPPFPQKLKFREPQREERICLVTTNFQTKSMSSMVSDTSCTFPSGDGIFWKHWIQTKDGQCGSPLVSTRDGFIVGIHSASNFTNTNNYFTSVPKNFMELLTNQEAQQWVSGWRLNADSVLWGGHKVFMVKPEEPFQPVKEATQL [G80I],0.0437,0.0563,0.0523,0.0514,0.0612,0.0656,0.0699,0.0613,0.06,0.04,0.0571,0.109,0.0503,,,,,,
MGESLFKGPRDYNPISSSICHLTNESDGHTTSLYGIGFGPFIITNKHLFRRNNGTLVVQSLHGVFKVKDTTTLQQHLVDVRDMIIIRMPKDFPPFPQKLKFREPQREERICLVTTNFQTKSMSSMVSDTSCTFPSGDGIFWKHWIQTKDGQCGSPLVSTRDGFIVGIHSASNFTNTNNYFTSVPKNFMELLTNQEAQQWVSGWRLNADSVLWGGHKVFMVKPEEPFQPVKEATQL [G80V],0.0537,0.068,0.0483,0.0595,,0.0594,,,0.0555,0.0518,0.0665,0.0849,0.0098,0.0758,0.0648,0.127,0.0664,0.0539,
MGESLFKGPRDYNPISSSICHLTNESDGHTTSLYGIGFGPFIITNKHLFRRNNGTLVVQSLHGVFKVKDTTTLQQHLVDMRDMIIIRMPKDFPPFPQKLKFREPQREERICLVTTNFQTKSMSSMVSDTSCTFPSGDGIFWKHWIQTKDGQCGSPLVSTRDGFIVGIHSASNFTNTNNYFTSVPKNFMELLTNQEAQQWVSGWRLNADSVLWGGHKVFMVKPEEPFQPVKEATQL [G80M],0.0579,0.0686,0.0645,0.0596,,,0.0712,0.0569,0.0716,0.0552,0.0633,,,0.0611,0.0652,,,0.0506,
MGESLFKGPRDYNPISSSICHLTNESDGHTTSLYGIGFGPFIITNKHLFRRNNGTLVVQSLHGVFKVKDTTTLQQHLVDQRDMIIIRMPKDFPPFPQKLKFREPQREERICLVTTNFQTKSMSSMVSDTSCTFPSGDGIFWKHWIQTKDGQCGSPLVSTRDGFIVGIHSASNFTNTNNYFTSVPKNFMELLTNQEAQQWVSGWRLNADSVLWGGHKVFMVKPEEPFQPVKEATQL [G80Q],0.053,0.0678,0.0543,0.0679,0.0606,0.0632,0.0719,0.0689,0.0619,0.0569,0.0669,0.0708,0.0454,0.0592,0.064,,0.0539,0.0589,
MGESLFKGPRDYNPISSSICHLTNESDGHTTSLYGIGFGPFIITNKHLFRRNNGTLVVQSLHGVFKVKDTTTLQQHLVDWRDMIIIRMPKDFPPFPQKLKFREPQREERICLVTTNFQTKSMSSMVSDTSCTFPSGDGIFWKHWIQTKDGQCGSPLVSTRDGFIVGIHSASNFTNTNNYFTSVPKNFMELLTNQEAQQWVSGWRLNADSVLWGGHKVFMVKPEEPFQPVKEATQL [G80W],0.0601,0.0517,0.0697,0.0448,0.0518,0.0635,,0.0466,0.055,0.0827,,0.0762,,0.0488,0.0596,0.117,0.0643,,0.0542
MGESLFKGPRDYNPISSSICHLTNESDGHTTSLYGIGFGPFIITNKHLFRRNNGTLVVQSLHGVFKVKDTTTLQQHLVDGRDMIIIRMPKDFPPYPQKLKFREPQREERICLVTTNFQTKSMSSMVSDTSCTFPSGDGIFWKHWIQTKDGQCGSPLVSTRDGFIVGIHSASNFTNTNNYFTSVPKNFMELLTNQEAQQWVSGWRLNADSVLWGGHKVFMVKPEEPFQPVKEATQL [F95Y],0.0588,,0.0606,0.041,0.0527,,,0.0585,0.0503,,0.0665,,0.0421,,0.0585,,,0.062,
MGESLFKGPRDYNPISSSICHLTNESDGHTTSLYGIGFGPFIITNKHLFRRNNGTLVVQSLHGVFKVKDTTTLQQHLVDGRDFIIIRMPKDFPPFPQKLKFREPQREERICLVTTNFQTKSMSSMVSDTSCTFPSGDGIFWKHWIQTKDGQCGSPLVSTRDGFIVGIHSASNFTNTNNYFTSVPKNFMELLTNQEAQQWVSGWRLNADSVLWGGHKVFMVKPEEPFQPVKEATQL [M83F],0.058,,0.073,0.0616,0.0623,,,,,0.0648,,,,0.0562,0.0499,,0.0633,0.047,0.058
MGESLFKGPRDYNPISSSICHLTNESDGHTTSLYGIGFGPFIITNKHLFRRNNGTLVVQSLHGVFKVKDTTTLQQHLVDGRDMIIIRNPKDFPPFPQKLKFREPQREERICLVTTNFQTKSMSSMVSDTSCTFPSGDGIFWKHWIQTKDGQCGSPLVSTRDGFIVGIHSASNFTNTNNYFTSVPKNFMELLTNQEAQQWVSGWRLNADSVLWGGHKVFMVKPEEPFQPVKEATQL [M88N],0.0399,0.0581,0.057,0.0416,,,,0.0456,0.0435,0.0462,0.0459,,0.0154,0.0482,0.061,0.0929,0.0382,0.044,
MGESLFKGPRDYNPISSSICHLTNESDGHTTSLYGIGFGPFIITNKHLFRRNNGTLVVQSLHGVFKVKDTTTLQQHLVDGRDMIIIRRPKDFPPFPQKLKFREPQREERICLVTTNFQTKSMSSMVSDTSCTFPSGDGIFWKHWIQTKDGQCGSPLVSTRDGFIVGIHSASNFTNTNNYFTSVPKNFMELLTNQEAQQWVSGWRLNADSVLWGGHKVFMVKPEEPFQPVKEATQL [M88R],0.0532,0.0495,0.0458,,,,,,0.0372,,,0.0505,,0.0477,,0.0695,,0.0573,
MGESLFKGPRDYNPISSSICHLTNESDGHTTSLYGIGFGPFIITNKHLFRRNNGTLVVQSLHGVFKVKDTTTLQQHLVDGRDMIIIRFPKDFPPFPQKLKFREPQREERICLVTTNFQTKSMSSMVSDTSCTFPSGDGIFWKHWIQTKDGQCGSPLVSTRDGFIVGIHSASNFTNTNNYFTSVPKNFMELLTNQEAQQWVSGWRLNADSVLWGGHKVFMVKPEEPFQPVKEATQL [M88F],0.0302,0.0628,0.0573,,,,,,,0.0508,,,0.0035,0.0525,0.0362,0.0865,,0.059,
MGESLFKGPRDYNPISSSICHLTNESDGHTTSLYGIGFGPFIITNKHLFRRNNGTLVVQSLHGVFKVKDTTTLQQHLVDGRDMIIIRTPKDFPPFPQKLKFREPQREERICLVTTNFQTKSMSSMVSDTSCTFPSGDGIFWKHWIQTKDGQCGSPLVSTRDGFIVGIHSASNFTNTNNYFTSVPKNFMELLTNQEAQQWVSGWRLNADSVLWGGHKVFMVKPEEPFQPVKEATQL [M88T],0.0824,0.0846,,0.0624,0.0753,,,0.0673,0.0547,0.0253,,,,,,0.0983,,0.0557,
MGESLFKGPRDYNPISSSICHLTNESDGHTTSLYGIGFGPFIITNKHLFRRNNGTLVVQSLHGVFKVKDTTTLQQHLVDGRDMIIIRVPKDFPPFPQKLKFREPQREERICLVTTNFQTKSMSSMVSDTSCTFPSGDGIFWKHWIQTKDGQCGSPLVSTRDGFIVGIHSASNFTNTNNYFTSVPKNFMELLTNQEAQQWVSGWRLNADSVLWGGHKVFMVKPEEPFQPVKEATQL [M88V],0.0513,0.0459,0.0573,0.0582,0.0424,0.0795,,0.037,0.0593,0.064,0.0639,0.0735,,0.0633,0.0618,0.091,0.0469,,0.0556
MGESLFKGPRDYNPISSSICHLTNESDGHTTSLYGIGFGPFIITNKHLFRRNNGTLVVQSLHGVFKVKDTTTLQQHLVDGRDMILIRMPKDFPPFPQKLKFREPQREERICLVTTNFQTKSMSSMVSDTSCTFPSGDGIFWKHWIQTKDGQCGSPLVSTRDGFIVGIHSASNFTNTNNYFTSVPKNFMELLTNQEAQQWVSGWRLNADSVLWGGHKVFMVKPEEPFQPVKEATQL [I85L],0.0674,0.0687,,0.068,,0.0564,0.0857,0.0586,0.0536,0.0597,0.0471,,,0.0719,,,0.0586,0.0603,
MGESLFKGPRDYNPISSSICHLTNESDGHTTSLYGIGFGPFIITNKHLFRRNNGTLVVQSLHGVFKVKDTTTLQQHLVDGRDMIIIRMPKDFPPFAQKLKFREPQREERICLVTTNFQTKSMSSMVSDTSCTFPSGDGIFWKHWIQTKDGQCGSPLVSTRDGFIVGIHSASNFTNTNNYFTSVPKNFMELLTNQEAQQWVSGWRLNADSVLWGGHKVFMVKPEEPFQPVKEATQL [P96A],0.0461,0.0948,0.0581,0.0548,0.0546,,,0.0525,0.0756,0.0641,0.0699,,,,0.0629,0.11,,0.0442,0.0382
MGESLFKGPRDYNPISSSICHLTNESDGHTTSLYGIGFGPFIITNKHLFRRNNGTLVVQSLHGVFKVKDTTTLQQHLVDGRDMIIIRMPKDFPPFEQKLKFREPQREERICLVTTNFQTKSMSSMVSDTSCTFPSGDGIFWKHWIQTKDGQCGSPLVSTRDGFIVGIHSASNFTNTNNYFTSVPKNFMELLTNQEAQQWVSGWRLNADSVLWGGHKVFMVKPEEPFQPVKEATQL [P96E],0.065,0.0529,0.0636,0.0681,0.0802,0.0776,,0.0625,,0.0646,0.0632,0.0681,0.014,0.0596,0.0641,0.102,0.0472,0.0572,
MGESLFKGPRDYNPISSSICHLTNESDGHTTSLYGIGFGPFIITNKHLFRRNNGTLVVQSLHGVFKVKDTTTLQQHLVDGRDMIIIRMPKDFPPFCQKLKFREPQREERICLVTTNFQTKSMSSMVSDTSCTFPSGDGIFWKHWIQTKDGQCGSPLVSTRDGFIVGIHSASNFTNTNNYFTSVPKNFMELLTNQEAQQWVSGWRLNADSVLWGGHKVFMVKPEEPFQPVKEATQL [P96C],0.0575,0.0712,0.0612,,0.0787,0.0411,0.105,0.0279,0.058,0.0536,0.0952,,0.0698,0.0582,0.0604,,0.0682,0.0472,0.0596
MGESLFKGPRDYNPISSSICHLTNESDGHTTSLYGIGFGPFIITNKHLFRRNNGTLVVQSLHGVFKVKDTTTLQQHLVDGRDMIIIRMPKDFPPFHQKLKFREPQREERICLVTTNFQTKSMSSMVSDTSCTFPSGDGIFWKHWIQTKDGQCGSPLVSTRDGFIVGIHSASNFTNTNNYFTSVPKNFMELLTNQEAQQWVSGWRLNADSVLWGGHKVFMVKPEEPFQPVKEATQL [P96H],0.0448,0.071,0.0623,,0.0532,0.062,0.0901,,0.0577,0.0586,0.0649,0.0765,,0.067,,0.0658,0.0711,0.0715,0.0648
MGESLFKGPRDYNPISSSICHLTNESDGHTTSLYGIGFGPFIITNKHLFRRNNGTLVVQSLHGVFKVKDTTTLQQHLVDGHDMIIIRMPKDFPPFPQKLKFREPQREERICLVTTNFQTKSMSSMVSDTSCTFPSGDGIFWKHWIQTKDGQCGSPLVSTRDGFIVGIHSASNFTNTNNYFTSVPKNFMELLTNQEAQQWVSGWRLNADSVLWGGHKVFMVKPEEPFQPVKEATQL [R81H],0.0553,0.0739,,,0.0571,0.0738,0.0715,0.0585,0.0642,0.0683,0.0557,,,0.066,0.0657,,0.0663,0.0509,
